# The other results are listed elsewhere or left out.
# B1: Nictaba (Nicotiana tabacum), Q94EW1 (protein)
# chain: MQGQWIAARDLSITWVDNPQYWTWKTVDPNIEVAELRRVAWLDIYGKIETKNLIRKTSYAVYLVFKLTDNPRELERATASLRFVNEVAEGAGIEGTTVFISKKKKLPGELGRFPHLRSDGWLEIKLGEFFNNLGEDGEVEMRLMEINDKTWKSGIIVKGFDIRPN
# Legend:
# Test in all cases: glycan array binding signal (z-score within array); higher = stronger binding
# Settings in all cases: glycan notation: IUPAC condensed, linker removed
# [1] = target: Gal(b1-4)GlcNAc(b1-3)Gal(b1-4)GlcNAc(b1-3)Gal(b1-4)GlcNAc(b1-3)Gal(b1-4)GlcNAc(b1-2)Man(a1-3)[Gal(b1-4)GlcNAc(b1-3)Gal(b1-4)GlcNAc(b1-3)Gal(b1-4)GlcNAc(b1-3)Gal(b1-4)GlcNAc(b1-2)Man(a1-6)]Man(b1-4)GlcNAc(b1-4)GlcNAc
# Method in brief: (§1)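 Arrays were curated from the Consortium for Functional Glycomics database, 3228 in total, and kept only where the protein sequence was available. Binding is expressed as a within-array Z-score. This score was averaged across arrays of the same protein sequence at different concentrations or buffers and across linkers, and negative values can be read as non-binding.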
# [2] = target: Gal(b1-4)GlcNAc(b1-3)Gal(b1-4)GlcNAc(b1-3)Gal(b1-4)GlcNAc(b1-3)Gal(b1-4)GlcNAc(b1-2)Man(a1-3)[Gal(b1-4)GlcNAc(b1-3)Gal(b1-4)GlcNAc(b1-3)Gal(b1-4)GlcNAc(b1-3)Gal(b1-4)GlcNAc(b1-2)Man(a1-6)]Man(b1-4)GlcNAc(b1-4)[Fuc(a1-6)]GlcNAc
# Method in brief: as §1
# [3] = target: Gal(b1-4)GlcNAc(b1-3)Gal(b1-4)GlcNAc(b1-3)Gal(b1-4)GlcNAc(b1-3)Gal(b1-4)GlcNAc(b1-2)[Gal(b1-4)GlcNAc(b1-3)Gal(b1-4)GlcNAc(b1-3)Gal(b1-4)GlcNAc(b1-3)Gal(b1-4)GlcNAc(b1-6)]Man(a1-6)[Gal(b1-4)GlcNAc(b1-3)Gal(b1-4)GlcNAc(b1-3)Gal(b1-4)GlcNAc(b1-3)Gal(b1-4)GlcNAc(b1-2)Man(a1-3)]Man(b1-4)GlcNAc(b1-4)[Fuc(a1-6)]GlcNAc
# Method in brief: as §1
# [4] = target: Gal(b1-4)GlcNAc(b1-3)Gal(b1-4)GlcNAc(b1-3)Gal(b1-4)GlcNAc(b1-3)Gal(b1-4)GlcNAc(b1-3)Gal(b1-4)GlcNAc(b1-2)Man(a1-3)[Gal(b1-4)GlcNAc(b1-3)Gal(b1-4)GlcNAc(b1-3)Gal(b1-4)GlcNAc(b1-3)Gal(b1-4)GlcNAc(b1-3)Gal(b1-4)GlcNAc(b1-2)Man(a1-6)]Man(b1-4)GlcNAc(b1-4)GlcNAc
# Method in brief: as §1
# [5] = target: Gal(b1-4)GlcNAc(b1-3)Gal(b1-4)GlcNAc(b1-3)Gal(b1-4)GlcNAc(b1-3)Gal(b1-4)GlcNAc(b1-3)Gal(b1-4)GlcNAc(b1-2)Man(a1-3)[Gal(b1-4)GlcNAc(b1-3)Gal(b1-4)GlcNAc(b1-3)Gal(b1-4)GlcNAc(b1-3)Gal(b1-4)GlcNAc(b1-3)Gal(b1-4)GlcNAc(b1-2)Man(a1-6)]Man(b1-4)GlcNAc(b1-4)[Fuc(a1-6)]GlcNAc
# Method in brief: as §1
# [6] = target: Gal(b1-4)GlcNAc(b1-3)Gal(b1-4)GlcNAc(b1-3)Gal(b1-4)GlcNAc(b1-3)Gal(b1-4)GlcNAc(b1-3)Gal(b1-4)GlcNAc(b1-2)[Gal(b1-4)GlcNAc(b1-3)Gal(b1-4)GlcNAc(b1-3)Gal(b1-4)GlcNAc(b1-3)Gal(b1-4)GlcNAc(b1-3)Gal(b1-4)GlcNAc(b1-6)]Man(a1-6)[Gal(b1-4)GlcNAc(b1-3)Gal(b1-4)GlcNAc(b1-3)Gal(b1-4)GlcNAc(b1-3)Gal(b1-4)GlcNAc(b1-3)Gal(b1-4)GlcNAc(b1-2)Man(a1-3)]Man(b1-4)GlcNAc(b1-4)[Fuc(a1-6)]GlcNAc
# Method in brief: as §1
# [7] = target: Gal(b1-4)GlcNAc(b1-3)Gal(b1-4)GlcNAc(b1-3)Gal(b1-4)GlcNAc(b1-3)Gal(b1-4)GlcNAc(b1-3)Gal(b1-4)GlcNAc(b1-3)Gal(b1-4)GlcNAc(b1-2)Man(a1-3)[Gal(b1-4)GlcNAc(b1-3)Gal(b1-4)GlcNAc(b1-3)Gal(b1-4)GlcNAc(b1-3)Gal(b1-4)GlcNAc(b1-3)Gal(b1-4)GlcNAc(b1-3)Gal(b1-4)GlcNAc(b1-2)Man(a1-6)]Man(b1-4)GlcNAc(b1-4)GlcNAc
# Method in brief: as §1
# [8] = target: Gal(b1-4)GlcNAc(b1-3)Gal(b1-4)GlcNAc(b1-3)GalNAc
# Method in brief: as §1
# [9] = target: Gal(b1-4)GlcNAc(b1-3)Gal(b1-4)GlcNAc(b1-3)[Gal(b1-4)GlcNAc(b1-3)Gal(b1-4)GlcNAc(b1-6)]GalNAc
# Method in brief: as §1
# [10] = target: Gal(b1-4)GlcNAc(b1-3)Gal(b1-4)GlcNAc(b1-6)[Gal(b1-3)]GalNAc
# Method in brief: as §1
# [11] = target: Gal(b1-4)GlcNAc(b1-3)Gal(b1-4)[Fuc(a1-3)GlcNAc(b1-6)]Gal(b1-4)Glc
# Method in brief: as §1
# [12] = target: Gal(b1-4)GlcNAc(b1-3)Gal(b1-4)[Fuc(a1-3)]GlcNAc(b1-3)Gal(b1-4)[Fuc(a1-3)]GlcNAc
# Method in brief: as §1
# [13] = target: Gal(b1-4)GlcNAc(b1-3)GalNAc
# Method in brief: as §1
# [14] = target: Gal(b1-4)GlcNAc(b1-3)[Fuc(a1-3)GlcNAc(b1-6)]Gal(b1-4)Glc
# Method in brief: as §1
# [15] = target: Gal(b1-4)GlcNAc(b1-3)[Gal(b1-4)GlcNAc(b1-6)]Gal(b1-4)GlcNAc
# Method in brief: as §1
# [16] = target: Gal(b1-4)GlcNAc(b1-3)[Gal(b1-4)GlcNAc(b1-6)]GalNAc
# Method in brief: as §1
# [17] = target: Gal(b1-4)GlcNAc(b1-3)[GlcNAc(b1-6)]Gal(b1-4)GlcNAc
# Method in brief: as §1
# [18] = target: Gal(b1-4)GlcNAc(b1-6)Gal(b1-4)GlcNAc
# Method in brief: as §1
# [19] = target: Gal(b1-4)GlcNAc(b1-6)GalNAc
# Method in brief: as §1
# [20] = target: Gal(b1-4)GlcNAc(b1-6)[Gal(b1-3)]GalNAc
# Method in brief: as §1
# [21] = target: Gal(b1-4)GlcNAc(b1-6)[Gal(b1-3)]GlcNAc
# Method in brief: as §1
# [22] = target: Gal(b1-4)GlcNAc(b1-6)[Gal(b1-4)GlcNAc(b1-3)]GalNAc
# Method in brief: as §1
# Gal(b1-4)GlcNAc6P = target: Gal(b1-4)GlcNAc6P
# Method in brief: as §1
binder,measurement,setting,value
B1,glycan array binding signal (z-score),[1],2.49
same,glycan array binding signal (z-score),[2],2.18
same,glycan array binding signal (z-score),[3],-0.086
same,glycan array binding signal (z-score),[4],2.43
same,glycan array binding signal (z-score),[5],2.91
same,glycan array binding signal (z-score),[6],-0.006
same,glycan array binding signal (z-score),[7],1.96
same,glycan array binding signal (z-score),[8],-0.382
same,glycan array binding signal (z-score),[9],-0.378
same,glycan array binding signal (z-score),[10],-0.388
same,glycan array binding signal (z-score),[11],-0.218
same,glycan array binding signal (z-score),[12],-0.253
same,glycan array binding signal (z-score),[13],-0.278
same,glycan array binding signal (z-score),[14],-0.384
same,glycan array binding signal (z-score),[15],-0.242
same,glycan array binding signal (z-score),[16],-0.269
same,glycan array binding signal (z-score),[17],-0.34
same,glycan array binding signal (z-score),[18],-0.29
same,glycan array binding signal (z-score),[19],-0.327
same,glycan array binding signal (z-score),[20],-0.301
same,glycan array binding signal (z-score),[21],-0.427
same,glycan array binding signal (z-score),[22],-0.385
same,glycan array binding signal (z-score),Gal(b1-4)GlcNAc6P,-0.387

# Source: the supplement of paper PMC8728848
